Results as given in patent publication US20260200947A1, “FUSED CYCLIC COMPOUNDS AND USE THEREOF” (Jacobio Pharmaceuticals Co., Ltd., priority 2022, published 2026).

Columns and labels:
GDP-KRAS G12V = GDP-KRAS G12V (Homo sapiens, UniProt P01116, G12V); assay: biochemical
GDP-KRAS G12D = GDP-KRAS G12D (Homo sapiens, UniProt P01116, G12D); assay: biochemical

SMILES	IC50 (GDP-KRAS G12V)	IC50 (GDP-KRAS G12D)
C#Cc1c(F)ccc2cc(N)cc(-c3nc4c5c(nc(OC[C@@]67CCCN6C[C@H](F)C7)nc5c3F)N3CC(F)(F)COC[C@H]3CO4)c12 [Compound 19]	0.534 nM	0.746 nM
C#Cc1c(F)ccc2cc(N)cc(-c3nc4c5c(nc(OCC67CC(C)CN6C[C@H](F)C7)nc5c3F)N3CCCOC[C@H]3CO4)c12 (stereo partly drawn) [Compound 32]	2.1 nM	3.69 nM
C#Cc1c(F)ccc2cc(N)cc(-c3nc4c5c(nc(OC[C@@]67CCCN6C[C@H](F)C7)nc5c3F)N3[C@@H](CC)CCOC[C@H]3CO4)c12 [Compound 65]	0.601 nM	2.08 nM
C#Cc1c(F)ccc2cc(O)cc(-c3nc4c5c(nc(OC[C@@]67CCCN6C[C@H](F)C7)nc5c3F)N3CCC=CC[C@H]3CO4)c12 [Compound 63]	0.769 nM	0.839 nM
C#Cc1c(F)ccc2cc(N)cc(-c3nc4c5c(nc(OCC6(CN7CC[C@@H](F)C7)CC6)nc5c3F)N3CCCOCC3N4C)c12 (stereo partly drawn) [Compound 82]	11.6 nM	3.63 nM
C#Cc1c(F)ccc2cc(N)cc(-c3nc4c5c(nc(OC[C@@]67CCCN6C[C@H](F)C7)nc5c3F)N3CCCCC(C#N)C3N4C)c12 (stereo partly drawn) [Compound 101]	5.64 nM	8.39 nM
C#Cc1c(F)ccc2cc(N)cc(-c3nc4c5c(nc(OC[C@@]67CCCN6C[C@H](F)C7)nc5c3F)N3CC(=C)COC[C@H]3N4C)c12 [Compound 138]	1.52 nM	2.51 nM
C#Cc1c(F)ccc2cc(N)cc(-c3nc4c5c(nc(OC[C@@]67CCCN6C[C@H](F)C7)nc5c3F)N3CCC(F)CC(F)C3N4C)c12 (stereo partly drawn) [Compound 115]	3.55 nM	2.56 nM
C#Cc1c(F)ccc2cc(N)cc(-c3nc4c5c(nc(OC[C@@]67CCCN6C[C@H](F)C7)nc5c3F)N3CC[C@H](F)CC[C@H]3N4C)c12 [Compound 83]	1.45 nM	0.712 nM
C#Cc1c(F)ccc2cc(N)cc(-c3nc4c5c(nc(OC[C@@]67CCCN6C[C@H](F)C7)nc5c3F)N3CCOCC3N4C3CC3)c12 (stereo partly drawn) [Compound 96]	10.2 nM	18.7 nM
C#Cc1c(F)ccc2cc(N)cc(-c3nc4c5c(nc(OC[C@@]67CCCN6C[C@H](F)C7)nc5c3F)N3[C@@H](COCC[C@@H]3C3CC3)CO4)c12 [Compound 64]	0.259 nM	0.367 nM
C#Cc1c(F)ccc2cc(N)cc(-c3nc4c5c(nc(OC[C@@]67CCCN6C[C@H](F)C7)nc5c3F)N3CCCC/C(=C\F)C3N4C)c12 (stereo partly drawn) [Compound 85]	3.81 nM	8.56 nM
[2H][C@]1(F)CCCCN2c3nc(OC[C@@]45CCCN4C[C@H](F)C5)nc4c(F)c(-c5cc(N)cc6ccc(F)c(C#C)c56)nc(c34)N(C)[C@@H]21 [Compound 95]	0.727 nM	0.561 nM
C#Cc1c(F)ccc2cc(N)cc(-c3nc4c5c(nc(OC[C@@]67CCCN6C[C@H](F)C7)nc5c3F)N3CC(CC#N)COCC3N4C)c12 (stereo partly drawn) [Compound 126]	5.45 nM	5.04 nM
C#Cc1c(F)ccc2cc(N)cc(-c3nc4c5c(nc(OC[C@@]67CCCN6C[C@H](F)C7)nc5c3F)N3CCCC[C@@H](O)[C@H]3N4C)c12 [Compound 110]	2.97 nM	2.87 nM
C#Cc1c(F)ccc2cc(N)cc(-c3nc4c5c(nc(OCC67CC(=C)CN6CC(=C)C7)nc5c3F)N3CCCOC[C@H]3CO4)c12 [Compound 3]	1.88 nM	2.95 nM
[2H]C#Cc1c(F)ccc2cc(N)cc(-c3nc4c5c(nc(OCC67CCCN6CC(F)C7)nc5c3F)N3CCCOCC3N4C)c12 (stereo not drawn) [Compound 109]	0.851 nM	0.921 nM
C#Cc1c(F)ccc2cc(N)cc(-c3nc4c5c(nc(OC[C@@]67CCCN6C[C@H](F)C7)nc5c3F)N3CC=CCCC3N4C)c12 (stereo partly drawn) [Compound 99]	3.48 nM	7.13 nM
C#Cc1c(F)ccc2cc(N)cc(-c3nc4c5c(nc(OCC6(CN7CCOCC7)CC6)nc5c3F)N3CCCOC[C@H]3N4C)c12 [Compound 74]	2.07 nM	3.4 nM
C#Cc1c(F)ccc2cc(N)cc(-c3nc4c5c(nc(OCC6(CN7CCOCC7)CC6(F)F)nc5c3F)N3CCCOC[C@H]3N4C)c12 (stereo partly drawn) [Compound 165]	9.27 nM	10.4 nM
C#Cc1c(F)ccc2cc(N)cc(-c3nc4c5c(nc(OCC6(CN(C)C)CC6(F)F)nc5c3F)N3CCCOC[C@H]3N4C)c12 (stereo partly drawn) [Compound 4]	2.04 nM	2.58 nM
N#Cc1c(N)sc2c(F)ccc(-c3nc4c5c(nc(OC[C@@]67CCCN6C[C@H](F)C7)nc5c3F)N3CCCOC[C@H]3CO4)c12 [Compound 160]	3.31 nM	2.36 nM
C#Cc1c(F)ccc2cc(N)cc(-c3nc4c5c(nc(O[C@@H](C)[C@@H]6[C@@H](OC)CCN6C)nc5c3F)N3CCCOC[C@H]3N4C)c12 [Compound 162]	5.73 nM	8.8 nM
C[C@H]1CCOC[C@H]2N(C)c3nc(-c4cc(N)cc5ccc(F)c(Cl)c45)c(F)c4nc(OC[C@@]56CCCN5C[C@H](F)C6)nc(c34)N12 [Compound 120]	1.98 nM	1.96 nM
